Laboratory results: the supplement of paper PMC11060735
Where a name gives a salt, the structure may show the parent alone. The whole screen tested about 1,800 compounds, of which about 50 (3%) showed activity. The list shows a part of the results.

tested on: mouse p16Ink4a+/- lung fibroblasts (INKBRITE, bleomycin-injured); experiment: percentage of GFP+ (p16Ink4a+) fibroblasts among all cells in well; higher = less depletion of p16Ink4a+ cells, active = 20 or less; details: 1 µM; 3 days
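Also: fibroblasts sorted 14 days after bleomycin, GFP+ and GFP− mixed 1:1 in 384-well plates (GFP− as in-well control), imaged after Hoechst and NucView530 staining, reference wells lacked compound.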

| SMILES | percentage of GFP+ |
| --- | --- |
| O=C(Nc1cccc(C(F)(F)F)c1)Nc1cc(S(=O)(=O)NC2CC2)ccc1-c1ccsc1 | inactive: 42.2% |
| CCN1CCN(Cc2ccc(Nc3ncc(F)c(-c4cc(F)c5nc(C)n(C(C)C)c5c4)n3)nc2)CC1 | inactive: 30.6% |
| CO[C@H]1/C=C/O[C@@]2(C)Oc3c(C)c(O)c4c(O)c(c(/C=N/N5CCN(C6CCCC6)CC5)c(O)c4c3C2=O)NC(=O)/C(C)=C\C=C\[C@H](C)[C@H](O)[C@@H](C)[C@@H](O)[C@@H](C)[C@H](OC(C)=O)[C@@H]1C [Rifapentine] | inactive: 40.7% |
| O=C(NC[C@H](O)CO)c1ccncc1Nc1ccc(I)cc1F [Pimasertib] | inactive: 24.5% |
| O=c1c(O)c(-c2ccc(O)c(O)c2)oc2cc(O)ccc12 [Fisetin] | inactive: 40.8% |
| c1cn2cc(-c3ccc4c[nH]nc4c3)nc(Nc3ccc(N4CCOCC4)cc3)c2n1 | inactive: 42.5% |
| C[C@@H](NCCc1ccc(O)cc1)[C@@H](O)c1ccc(O)cc1 [Ritodrine HCl] | inactive: 37.6% |
| Cc1[nH]c2ccccc2c1CCNC(=O)c1cccs1 [N-[2-(2-methyl-1H-indol-3-yl)ethyl]thiophene-2-carboxamide] | inactive: 39.3% |
| COc1c(N2CCNC(C)C2)c(F)cc2c(=O)c(C(=O)O)cn(C3CC3)c12 (stereo not drawn) [Gatifloxacin] | inactive: 43.4% |
| Cc1cc(/C=C/C#N)cc(C)c1Nc1ccnc(Nc2ccc(C#N)cc2)n1 [Rilpivirine] | inactive: 45.7% |
| COc1ccccc1S(=O)(=O)Nc1ccc2c(c1)CN(C)C(=O)N2 | inactive: 30.6% |
| C=CCN1CCCC1CNC(=O)c1cc2nn[nH]c2cc1OC (stereo not drawn) [Alizapride] | inactive: 41.8% |
| CC(=O)c1cc([N+](=O)[O-])c(Sc2cccc(Cl)c2Cl)s1 | inactive: 41.2% |
| O=C(NCCO[N+](=O)[O-])c1cccnc1 [Nicorandil] | inactive: 33.1% |
| NC(=O)C(c1ccccc1)(c1ccccc1)[C@@H]1CCN(CCc2ccc3c(c2)CCO3)C1 [Darifenacin] | inactive: 41.5% |
| O=C1CCC[C@@H]2[C@H]3CCC[N+]4([O-])CCC[C@@H](CN12)[C@@H]34 (stereo partly drawn) [Oxymatrine] | inactive: 37.4% |
| Cc1c(C(=O)N2CCOc3ccc(-c4ccc(N)nc4)cc3C2)ccc(S(C)(=O)=O)c1F | inactive: 40.6% |
| CCc1c(C(=O)NCCc2ccc(N3CCCCC3)cc2)[nH]c2ccc(Cl)cc12 | inactive: 40.4% |
| Cc1ccc(C(=O)Nc2ccc(CN3CCN(C)CC3)c(C(F)(F)F)c2)cc1C#Cc1cnc2cccnn12 [Ponatinib] | inactive: 31.2% |
| CCN(CC)CCCC(C)Nc1nc(C)cc(Nc2ccc3nc(C)cc(N)c3c2)n1 (stereo not drawn) | inactive: 51.1% |
| C1=C/COCc2cc(ccc2OCCN2CCCC2)Nc2nccc(n2)-c2cccc(c2)COC/1 [Pacritinib] | inactive: 37% |
| COCC(=O)NC/C=C/c1ccc2ncnc(Nc3ccc(Oc4ccc(C)nc4)c(C)c3)c2c1 | inactive: 44.9% |
| Cc1cc(OCCCS(C)(=O)=O)cc(C)c1-c1cccc(COc2ccc3c(c2)OC[C@H]3CC(=O)O)c1 | inactive: 42.9% |
| CN(C)CC/C=C1/c2ccccc2Sc2ccc(Cl)cc21 [Chlorprothixene] | inactive: 51.2% |
| O=c1ccn([C@@H]2O[C@H](CO)[C@@H](O)[C@H]2O)c(=O)[nH]1 [Uridine] | inactive: 48.8% |

| SMILES | percentage of GFP+ |
| --- | --- |
| Cn1c(Nc2ccc(C(F)(F)F)cc2)nc2cc(Oc3ccnc(-c4nc(C(F)(F)F)c[nH]4)c3)ccc21 | inactive: 37% |
| C=C1C(=O)O[C@@H]2/C=C(\C)CC/C=C(\C)CC[C@@H]12 [Costunolide] | inactive: 34.2% |
| OC[C@@H](O)[C@@H](O)[C@@H](O)CO [Ribitol] | inactive: 42.9% |
| CC1=NN(c2ccccc2)C(=O)C1 [3-methyl-1-phenyl-2-pyrazolin-5-one (mci-186), Edaravone] | inactive: 43.3% |
| Cc1nc(O)c(C#N)cc1-c1ccncc1 [Milrinone] | inactive: 37.8% |
| CC(C)c1cc(-c2ccc(F)c3ccccc23)nc(N)n1 | inactive: 48% |
| CC[C@H](Nc1ncnc2[nH]cnc12)c1nc2cccc(F)c2c(=O)n1-c1ccccc1 [Idelalisib] | inactive: 32.7% |
| NC(=O)c1cccc(N)c1 [3-aminobenzamide] | inactive: 39.9% |
| CC(C)(C)c1nc(-c2cccc(NS(=O)(=O)c3c(F)cccc3F)c2F)c(-c2ccnc(N)n2)s1 [Dabrafenib] | inactive: 23% |
| Cc1c(NC(=O)OC[C@@H]2COCCN2)cn2ncnc(Nc3ccc4c(cnn4Cc4cccc(F)c4)c3)c12 | inactive: 54.2% |
| CCCCCCCCCCCC[N+](C)(C)CCOc1ccccc1 [Domiphen] | inactive: 51.1% |
| COc1cc2ncnc(Oc3cccc(NC(=O)Nc4cc(C(C)(C)C(F)(F)F)on4)c3)c2cc1OC | inactive: 41.1% |
| CC[C@@H]1C(=O)N(C)c2cnc(Nc3ccc(C(=O)N[C@H]4CC[C@H](N5CCN(CC6CC6)CC5)CC4)cc3OC)nc2N1C(C)C [Volasertib] | inactive: 20.4% |
| CC(C(=O)O)c1ccc2c(c1)[nH]c1ccc(Cl)cc12 (stereo not drawn) [Carprofen] | inactive: 45.4% |
| CNC(=O)[C@H](Cc1c[nH]c2ccccc12)NC(=O)[C@@H](CC(=O)NO)CC(C)C | inactive: 41.5% |
| CN1CCN(c2nc(C3=C(c4c[nH]c5ccccc45)C(=O)NC3=O)c3ccccc3n2)CC1 [Sotrastaurin] | inactive: 50.7% |
| N#C/C(=C(/N)Sc1ccc(N)cc1)c1ccccc1C(F)(F)F | inactive: 47.9% |
| N=C(N)c1ccc(N=NNc2ccc(C(=N)N)cc2)cc1 [Diminazene] | inactive: 55% |
| O=C(O)/C(Cc1ccccc1[N+](=O)[O-])=N/Nc1nc(-c2ccc(Cl)c(Cl)c2)cs1 | inactive: 36.8% |
| O=c1cc(-c2cccc3c2Sc2ccccc2S3)oc(N2CCOCC2)c1 [ATM Kinase Inhibitor] | inactive: 50.2% |
| O=c1cc(-c2ccccc2)oc2cc(O)cc(O)c12 [Chrysin] | inactive: 43.8% |
| C[C@@H](Oc1cc(-c2cnn(C3CCNCC3)c2)cnc1N)c1c(Cl)ccc(F)c1Cl [Crizotinib] | inactive: 50.9% |
| S=C=Nc1cccc(NC(=S)NCCCCNC(=S)Nc2cccc(N=C=S)c2)c1 | inactive: 43.5% |
| Cc1cc2c(F)c(Oc3ncnn4cc(OC[C@@H](C)O)c(C)c34)ccc2[nH]1 [Brivanib] | inactive: 43.4% |
| CC(C)(Cc1ccc2ccccc2c1)NC[C@@H](O)COc1cccc(Cl)c1C#N | inactive: 36.6% |

| SMILES | percentage of GFP+ |
| --- | --- |
| COc1ccc(Cl)cc1C(=O)NCCc1ccc(S(=O)(=O)NC(=O)NC2CCCCC2)cc1 [Glibenclamide, Glyburide] | inactive: 45.6% |
| O=c1c(O)c(-c2ccc(O)cc2)oc2cc(O)cc(O)c12 [Kaempherol] | inactive: 46.4% |
| CC[C@@H](CO)NCCN[C@@H](CC)CO [Ethambutol] | inactive: 46% |
| CCCCc1oc2ccccc2c1C(=O)c1cc(I)c(OCCN(CC)CC)c(I)c1 [Amiodarone] | inactive: 50.3% |
| COc1nc(C)nc(Cl)c1NC1=NCCN1 [Moxonidine, Moxonidine Hydrochloride] | inactive: 43.1% |
| CC(C)[N+]1(C)C2CCC1CC(OC(=O)C(CO)c1ccccc1)C2 (stereo not drawn) [Ipratropium Bromide] | inactive: 40.3% |
| CCN(CC)CCOc1ccc(/C(=C(\Cl)c2ccccc2)c2ccccc2)cc1 [Clomiphene] | inactive: 30.2% |
| O=c1sn(-c2cccc3ccccc23)c(=O)n1Cc1ccccc1 [Tideglusib] | inactive: 53% |
| N#Cc1c(O)nc2scc(-c3ccc(-c4ccccc4O)cc3)c2c1O | inactive: 51.1% |
| Cn1cc(/C=C2/C(=O)Nc3cccnc32)c2ccccc21 | inactive: 40.7% |
| CCC1=C(C)CN(C(=O)NCCc2ccc(S(=O)(=O)NC(=O)N[C@H]3CC[C@H](C)CC3)cc2)C1=O [Glimepiride] | inactive: 31.8% |
| OCCn1cc(-c2cnc3nnn(Cc4ccc5ncccc5c4)c3n2)cn1 | inactive: 41.7% |
| Nc1ncnc2c1ncn2[C@@H]1O[C@H](CO)[C@@H](O)[C@@H]1O [Vidarabine] | inactive: 34.7% |
| CCOc1ccc(NC(C)=O)cc1 [Phenacetin] | inactive: 46.1% |
| COc1cc(NC(C)CCCN)c2ncccc2c1 (stereo not drawn) [Primaquine] | inactive: 43.4% |
| CCc1cccc2c3c([nH]c12)[C@@](CC)(CC(=O)O)OCC3 [Etodolac] | inactive: 46.9% |
| Cc1cc(=O)oc2cc(O)ccc12 [7-hydroxy-4-methyl-2H-chromen-2-one] | inactive: 43.4% |
| C[C@@H]1O[C@@H](OC[C@H]2O[C@@H](Oc3c(-c4ccc(O)c(O)c4)oc4cc(O)cc(O)c4c3=O)[C@H](O)[C@@H](O)[C@@H]2O)[C@H](O)[C@H](O)[C@H]1O [Rutin] | inactive: 41.8% |
| C/C(=C\c1ccc(C(=O)O)cc1)c1ccc2c(c1)C(C)(C)CCC2(C)C | inactive: 42.2% |
| Cc1c(Cl)cccc1Nc1ccccc1C(=O)O [Tolfenamic Acid] | inactive: 40.1% |
| CCO/C(O)=C1\C(C)=NC(C)=C(C(=O)OC)C1c1cccc(Cl)c1Cl (stereo not drawn) [Felodipine] | inactive: 27.4% |
| C[N+](C)(C)CCOC(=O)CCC(=O)OCC[N+](C)(C)C [Succinylcholine] | inactive: 54.6% |
| COc1cc2ncc(-c3ccccc3)nc2cc1OC [Tyrphostin AG] | inactive: 53.2% |
